The supplement of paper PMC11417369
The list shows a part of the results.

Tested on: PF3D7_0420300 AP2 domain 1 (GST-tagged)
Test: gcPBM binding intensity (ln(normalized median fluorescence intensity)); higher = stronger DNA binding
In short: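 Probes on an Agilent 4 × 180k array were primer-extended, double-stranded and 36 bp long, taken from intergenic genomic regions, with negative controls added. GST-tagged P. falciparum DNA-binding domains from E. coli, about 25 μg on average, were applied to the array for 1 h in 1× PBS containing 1% milk, 0.2 mg/ml BSA, 0.5% salmon testes DNA and 0.03% Triton X-100. Binding intensity, obtained after Alexa488 anti-GST antibody detection and a 488 nm scan, is the highest Masliner-normalised natural-log median intensity across replicate spots of either probe orientation.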

Row | Sequence | gcPBM binding intensity (ln)
1 | CACCAAAATATATGTACATATGATAAATGTGAATAT [GTGCAC_negctrl_site83] | 9.43
2 | GTCTATATATTTTAGGTGCAACGTAAATGTAAAAAT | 9.27
3 | AAAATTATCGTTATATGTACGCATCTTAATACGTAT [XGTACX_site4063] | 9.25
4 | TAACTTTTTTTTTTTTTTTTTTAACTTTTATGTAAT [GTGCAC_negctrl_site156] | 9.06
5 | TTTTACAATATTTTGTGTACTTATATTATGAGCTTA [XGTACX_site3287] | 9.03
6 | AACTTTAAACCCTGAACACACACAAATACACCCAAA [CACACA_site7971] | 9.72
7 | TATATATATATATATATATATATATATGTATATATG [XGTACX_negctrl_site242] | 8.97
8 | ATAATCCACAAGCACACACACACACCCATATATATA [CACACA_site1268] | 10.2
9 | AATATATCAAAAATGATGACATAAATATATTAATTT [GTGCAC_negctrl_site530] | 9.15
10 | TAATATCGTATATGAGTGCAATATTTTAGATTTTGA | 8.99
11 | TGCACGCACAGACACACACACAACTAAAAAATAATG [CACACA_site7250] | 9.72
12 | AAAAAAAGGTAAAATTGTACATACGCACAAAAATAT [XGTACX_site2887] | 9.35
13 | AAAAAAAGGAAATTTACACACACATATAATATACAT [CACACA_site3297] | 9.93
14 | ATTTCCTTGAATGTTGCATGCTGTATTTTAATTAAA [TGCATGCA_site280] | 9.34
15 | TAGATTATTATACTAGTGCAAATTATTTAAGAAAAA | 8.92
16 | AAAAAAAAAAAGTGCACACATAAAAATATGATCTAA [CACACA_site572] | 9.53
17 | TAAATTTTTCTAAGTGCATGTTAATTTTTCAATTTA [TGCATGCA_site906] | 9.03
18 | TTTAAAAAGTTATGAAGTACATATATATATATATAT [XGTACX_site2188] | 8.87
19 | ATATTATTTATAAAAGTGCAAAAATCACTTCTTTTA [GTGCAC_site9656] | 8.86

Row | Sequence | gcPBM binding intensity (ln)
20 | AGATGAGAGATATATACACACAATAATACCTATTTA [CACACA_site6542] | 9.71
21 | AATAAATTCATGAATTGTACGTAATGATAACATGAA [XGTACX_site2591] | 9.38
22 | TTTTTATTCCAGTATTCACACACGAATAACCACATA [CACACA_site1897] | 9.46
23 | ATTTTCTTTTTTAAACGTACACATATTAAATATATA [XGTACX_site7773] | 9.23
24 | TTATAACTTTTCACAAGTACATATATATATGTATAA [XGTACX_site2306] | 8.97
25 | ATATATATGTTTTTATGTACATATTTTTCTCCTTCA [XGTACX_site5899] | 9.36
26 | TTTGGAAAGCGTGATTTTTGACAAACACAAAAAAAA [CACACA_negctrl_site651] | 8.82
27 | ATGTGTATACTAAGAACACACAAGTTACTTGGTGTT [CACACA_site6864] | 9.41
28 | TATTTAAAAGATGAAAGTACACATTTAATTACATTT [XGTACX_site3781] | 9.08
29 | TATATTTAACATACTTTTTTTTTTTTTTTTTTTTTT [CACACA_negctrl_site938] | 9.01
30 | TACATATATCTATGTGTGCACTTATTTCCGGACAAA | 9.3
31 | TAATTAGCATAATACACATGCATACATTTATATATA [TGCATGCA_site542] | 9.2
32 | AGTCTTTTACATTGCACACACATTTCTTTCCTTTTG [CACACA_site2988] | 10.1
33 | AAAAAAAAAAAACATACACACAAGAACAAAATATGA [CACACA_site3002] | 10
34 | TACAATATTTCGAGCTTGCACTTTTATTAAGTAAAT | 9.01
35 | TATCTGTATTTGTATACACACAAATGTATTTATTTA [CACACA_site4830] | 9.48
36 | TATACAGACAGACACACACACATATATAAATATGTA [CACACA_site6912] | 9.92
37 | ATTATTATTTTTAACTGTACATAGATATAGATATCC [XGTACX_site8714] | 9.13
38 | TAAGAAAAATATATATGTACACATATATATATATAT [XGTACX_site8542] | 9

Row | Sequence | gcPBM binding intensity (ln)
39 | TGTATGTTATATACAACACACAAAAAAAAACAAGTT [CACACA_site301] | 9.55
40 | AACTTTTATACGGATACACACAAAAAAAAATAAAAA [CACACA_site6547] | 9.56
41 | TGGGAACAATATATTTGTACTTAAATAAATAAAAAA [XGTACX_site6762] | 9.04
42 | GAACAAAATGATAGAAGTACAAATATTTATTTTGTT [XGTACX_site7146] | 9.33
43 | AAAGAGAAACAAAATTGTACATTATATTGTAGACGT [XGTACX_site976] | 9.48
44 | TATATTTATAAGTGTACACATTATATAAATCCCTAT [CACACA_site6122] | 9.2
45 | ATTAAATGATTCATATGTACATAAATAAATAAATAT [XGTACX_site2249] | 9.33
46 | TATTAATATTTACACACATGCGCACACATAAATAAA [TGCATGCA_site609] | 9.74
47 | TTTCTTTTTAAAGTGTATTAAAATTGAATAAAAAGA [XGTACX_negctrl_site408] | 8.82
48 | TTTTTTTTTTTTGTCACACACCTTCATAAGAAAAAA [CACACA_site4779] | 9.05
49 | ATGAAAAAACATAATTGTACAAAAGTTGGATTCGAT [XGTACX_site7732] | 9.67
50 | GTACAGATATTGTACATACACACCTATATAAATATC [CACACA_site5739] | 9.44
51 | TAAATCCGCAGGCACACACACATATTAAGAAAAAAA [CACACA_site6061] | 9.74
52 | ATCATCACATAAGAAAATAGATAAAAAAAAAAAAAT [XGTACX_negctrl_site589] | 9.19
53 | TTTGAATTTTTATATACACACATTATTATATTATAT [CACACA_site1593] | 9.53
54 | ATCTATGGAGCTTATACACACTTTTATATTTTAACA [CACACA_site5994] | 9.45
55 | TATTTATTTGTGGGGTGTACGAAATTTTTTTTTTTT [XGTACX_site5091] | 10
56 | ATAGGTGAATACTAATATAAATTCAAGAGGGAAAAG [CACACA_negctrl_site720] | 9.44
57 | TTTACATTAAATCACGCACACAAAAAAAAAAAAAAA [CACACA_site2418] | 9.2
